Laboratory results from PubChem BioAssay AID1508624 (National Center for Advancing Translational Sciences (NCATS), 2021).
Out of some 48,000 compounds screened, about 120 (0.25%) were called active. Not shown: some 4% with an inconclusive outcome. Calls come from the whole dose curve; as a rule, active = well fitted activation curve with a large enough effect; inconclusive = small, poorly fitted or top-dose-only effect, or another doubt; inactive = no such curve, though single readings can be large or run the other way. The list shows a part of the results.

Assay: Primary qHTS for Identification of Small Molecule Activators of Huntingtin-Antisense Promoter Activity; note: nearly all actives have a fitted effect of over 55% in size
Conditions: HEK293 HTT-AS promoter firefly luciferase reporter (activity 0% = vehicle and -100% = no light), 24 h; series mostly up to 57.5 µM; activity change, positive = activation: at the top concentration
How it was run: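 Quantitative HTS used concentration series of up to 57.5 uM final on HEK293 luciferase reporter cells, 24 h at 37 degrees C. Readout was Dual-Glo firefly luminescence.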
Potency is the fitted concentration of half-maximal effect.

Activity change, positive = activation, inactive:
O=C(CC1N=C2c3ccccc3N=C(SCc3ccccc3Cl)N2C1=O)NCCc1ccccc1 (configuration not stated) -18.6%
CCOc1ccc(-n2nc3ccc(NC(=O)c4ccc(OC)c(Cl)c4)cc3n2)cc1 -0.247%
Cc1ccc2c(=O)cc(C(=O)Nc3sc4c(c3C(=O)NCC3CCCO3)CCC4)oc2c1 (configuration not stated) -2.67%
CCC(C(=O)NCc1ccccc1OC)n1nc(C)n2c(cc3occc32)c1=O (configuration not stated) -18.2%
Cc1oc(-c2ccccc2Cl)nc1CS(=O)(=O)CC(=O)NCc1ccc(F)cc1 -29.9%
COC(=O)c1cccc(NC2=NS(=O)(=O)c3ccccc32)c1 -3.45%
CCCCCC1Nc2cc(C(F)(F)F)c(S(N)(=O)=O)cc2S(=O)(=O)N1 (configuration not stated) -4.77%
COc1ccc(C)cc1NC(=O)C1CCN(S(=O)(=O)c2cc(Br)cc3c2N(C(C)=O)CC3)CC1 -0.357%
CCOc1ccccc1NC(=O)N(Cc1ccc(C)o1)C1CCN(C(C)=O)CC1 -17%
COc1ccc(C)c2sc(N3CCN(C(=O)c4cccc(F)c4)CC3)nc12 -8.91%
CCOC(=O)CNC(=O)N1CCCN(S(=O)(=O)c2ccc3c(ccn3CC)c2)CC1 -1.81%
Cc1ccc(-c2cc3ncc4c(n3n2)-c2cc(F)ccc2OC4)cc1 6.38%
CCc1ccc(C(=O)c2cn(CC(=O)Nc3cccc(OC)c3)c3cc4c(cc3c2=O)OCO4)cc1 -20.6%
O=C(CSc1nnc(-c2ccc(Cl)cc2)o1)c1ccc([N+](=O)[O-])cc1 -7.06%
CCn1c(SCc2c(F)cccc2Cl)nc(=O)c2c(C(=O)OC)cc(C3CC3)nc21 11%
O=C(c1ccccc1Br)N(Cc1ccco1)Cc1ccco1 -29.8%
CC1Cc2ccccc2N1C(=O)CSc1nc2ccc(NC(=O)COc3ccccc3)cc2s1 (configuration not stated) -25.8%
CC1=C(C(=O)NCc2cccc(F)c2)C2(CCCCC2)OC1=O -16.7%
CCOC(=O)C(C)Sc1ccc2nnc(CCNS(=O)(=O)c3ccc(C)cc3)n2n1 (configuration not stated) 1.26%
CCCCOC(=O)c1ccc(N)cc1 24.4%
N#Cc1c(C(F)(F)F)cc(-c2cccs2)nc1SCc1ccc(F)cc1 -4.7%
Cc1ccccc1CSc1cn(CC(=O)N2CCCCC2)c2ccccc12 7.63%
CCOC(=O)c1c(C)oc2nc(C)nc(NCC3CCN(Cc4ccc(C)cc4)CC3)c12 -19.1%
Cc1nn(C)cc1CN(C)C(=O)c1cc(-c2ccccc2)nc2ccc(Br)cc12 -21.2%
CCOc1ccc(CCNC(=O)c2oc(=O)c3ccccc3c2-c2ccc(C)cc2)cc1OCC -29.9%
Cc1ccc(NC(=O)CCS(=O)(=O)c2ccc(Br)s2)c(Br)c1 -18.1%

Potency, active:
CCc1nn2c(=O)cc(COC(=O)c3ccccc3)nc2s1 3.98 µM
